{"source": "the supplement of paper PMC8728848", "test_in_all_cases": "glycan array binding signal (z-score within array); higher = stronger binding", "settings_in_all_cases": "glycan notation: IUPAC condensed, linker removed", "key": {"[1]": {"molecular_target": "Fuc(a1-2)[GalNAc(b1-3)]Gal", "outline": "(§1)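 Negative Z-scores can be read as non-binding. The Z-score is calculated within each array and then averaged across arrays of one protein sequence at different concentrations or buffers and across linkers. Arrays, 3228 in all, were curated from the Consortium for Functional Glycomics database and kept only where the protein sequence was available.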"}, "[2]": {"molecular_target": "Fuc(a1-3)GlcNAc", "outline": "as §1"}, "[3]": {"molecular_target": "Fuc(a1-3)[Gal(b1-4)]Glc6S", "outline": "as §1"}, "[4]": {"molecular_target": "Fuc(a1-3)[Gal(b1-4)]GlcNAc", "outline": "as §1"}, "[5]": {"molecular_target": "Fuc(a1-3)[Gal(b1-4)]GlcNAc(b1-2)Man", "outline": "as §1"}, "[6]": {"molecular_target": "Fuc(a1-3)[Gal(b1-4)]GlcNAc(b1-2)Man(a1-3)[Fuc(a1-3)[Gal(b1-4)]GlcNAc(b1-2)Man(a1-6)]Man(b1-4)GlcNAc(b1-4)GlcNAc", "outline": "as §1"}, "[7]": {"molecular_target": "Fuc(a1-3)[Gal(b1-4)]GlcNAc(b1-2)Man(a1-3)[Fuc(a1-3)[Gal(b1-4)]GlcNAc(b1-2)Man(a1-6)]Man(b1-4)GlcNAc(b1-4)[Fuc(a1-6)]GlcNAc", "outline": "as §1"}, "[8]": {"molecular_target": "Fuc(a1-3)[Gal(b1-4)]GlcNAc(b1-3)Gal(b1-3)[Fuc(a1-4)]GlcNAc", "outline": "as §1"}, "[9]": {"molecular_target": "Fuc(a1-3)[Gal(b1-4)]GlcNAc(b1-3)Gal(b1-4)[Fuc(a1-3)]GlcNAc", "outline": "as §1"}, "[10]": {"molecular_target": "Fuc(a1-3)[Gal(b1-4)]GlcNAc(b1-3)Gal(b1-4)[Fuc(a1-3)]GlcNAc(b1-3)Gal(b1-4)[Fuc(a1-3)]GlcNAc", "outline": "as §1"}, "[11]": {"molecular_target": "Fuc(a1-3)[Gal(b1-4)]GlcNAc(b1-3)GalNAc", "outline": "as §1"}, "[12]": {"molecular_target": "Fuc(a1-3)[Gal(b1-4)]GlcNAc(b1-6)GalNAc", "outline": "as §1"}, "[13]": {"molecular_target": "Fuc(a1-3)[Gal(b1-4)]GlcNAc(b1-6)[Gal(b1-3)GlcNAc(b1-3)]Gal(b1-4)Glc", "outline": "as §1"}, "[14]": {"molecular_target": "Fuc(a1-3)[Gal(b1-4)]GlcNAc6S", "outline": "as §1"}, "[15]": {"molecular_target": "Fuc(a1-3)[Gal3S(b1-4)]Glc", "outline": "as §1"}, "[16]": {"molecular_target": "Fuc(a1-3)[Gal3S(b1-4)]GlcNAc", "outline": "as §1"}, "[17]": {"molecular_target": "Fuc(a1-3)[Gal3S(b1-4)]GlcNAc6S", "outline": "as §1"}, "[18]": {"molecular_target": "Fuc(a1-3)[GalNAc(b1-4)]GlcNAc", "outline": "as §1"}, "[19]": {"molecular_target": "Fuc(a1-3)[GalNAc(b1-4)]GlcNAc6S", "outline": "as §1"}, "[20]": {"molecular_target": "Fuc(a1-4)GlcNAc", "outline": "as §1"}, "[21]": {"molecular_target": "Fuc(b1-3)GlcNAc", "outline": "as §1"}, "[22]": {"molecular_target": "Gal(a1-2)Gal", "outline": "as §1"}, "[23]": {"molecular_target": "Gal(a1-3)Gal", "outline": "as §1"}, "[24]": {"molecular_target": "Gal(a1-3)Gal(b1-3)GlcNAc", "outline": "as §1"}, "[25]": {"molecular_target": "Gal(a1-3)Gal(b1-3)GlcNAc(b1-2)Man", "outline": "as §1"}, "[26]": {"molecular_target": "Gal(a1-3)Gal(b1-3)GlcNAc(b1-2)Man(a1-3)[Gal(a1-3)Gal(b1-3)GlcNAc(b1-2)Man(a1-6)]Man(b1-4)GlcNAc(b1-4)GlcNAc", "outline": "as §1"}, "[27]": {"molecular_target": "Gal(a1-3)Gal(b1-3)GlcNAc(b1-3)GalNAc", "outline": "as §1"}, "[28]": {"molecular_target": "Gal(a1-3)Gal(b1-3)GlcNAc(b1-6)GalNAc", "outline": "as §1"}, "[29]": {"molecular_target": "Gal(a1-3)Gal(b1-3)[Fuc(a1-4)]GlcNAc(b1-2)Man(a1-3)[Gal(a1-3)Gal(b1-3)[Fuc(a1-4)]GlcNAc(b1-2)Man(a1-6)]Man(b1-4)GlcNAc(b1-4)GlcNAc", "outline": "as §1"}, "[30]": {"molecular_target": "Gal(a1-3)Gal(b1-4)Glc", "outline": "as §1"}}, "note": "This is one part of the list."}
{"binder": "Di AAL2 (Agrocybe aegerita) (protein) MTSNVITQDLPIPVASRGFADIVGFGLDGVVIGRNAVNLQPFLAVKNFAQNAGGWLTTKHVRLIADTTGTGKGDIVGFGNAGVYVSVNNGKNTFADPPKMVIANFGYDAGGWRVEKHLRYLADIRKIGRADIIGFGEKGVLVSRNNGGLNFGPATLVLKDFGYDAGGWRLDRHLRFLADVTGNGHLDIVGFGDKHVFISRNNGDGTFAPAKSVIDNFCIDAGGWKIGDHPRFVADLTGDGTADIIGCGKAGCWVALNNGGGVFGQVKLVINDFGTDKGWQAAKHPRFIADLTGNGRGDVVGFGNAGVYVALNNGDGTFQSAKLVLKDFGVQQGWTVSKHRRFVVDLTGDGCADIIGFGEKETLVSYNDGKGNFGPVKALTNDFSFSGGKWAPETTVCWMANLDSSRHPAPAPMTSNVITQDLPIPVASRGFADIVGFGLDGVVIGRNAVNLQPFLAVKNFAQNAGGWLTTKHVRLIADTTGTGKGDIVGFGNAGVYVSVNNGKNTFADPPKMVIANFGYDAGGWRVEKHLRYLADIRKIGRADIIGFGEKGVLVSRNNGGLNFGPATLVLKDFGYDAGGWRLDRHLRFLADVTGNGHLDIVGFGDKHVFISRNNGDGTFAPAKSVIDNFCIDAGGWKIGDHPRFVADLTGDGTADIIGCGKAGCWVALNNGGGVFGQVKLVINDFGTDKGWQAAKHPRFIADLTGNGRGDVVGFGNAGVYVALNNGDGTFQSAKLVLKDFGVQQGWTVSKHRRFVVDLTGDGCADIIGFGEKETLVSYNDGKGNFGPVKALTNDFSFSGGKWAPETTVCWMANLDSSRH", "values": [{"measurement": "glycan array binding signal (z-score)", "setting": "[1]", "value": -0.337}, {"measurement": "glycan array binding signal (z-score)", "setting": "[2]", "value": -0.337}, {"measurement": "glycan array binding signal (z-score)", "setting": "[3]", "value": -0.322}, {"measurement": "glycan array binding signal (z-score)", "setting": "[4]", "value": -0.335}, {"measurement": "glycan array binding signal (z-score)", "setting": "[5]", "value": -0.316}, {"measurement": "glycan array binding signal (z-score)", "setting": "[6]", "value": -0.33}, {"measurement": "glycan array binding signal (z-score)", "setting": "[7]", "value": -0.336}, {"measurement": "glycan array binding signal (z-score)", "setting": "[8]", "value": -0.298}, {"measurement": "glycan array binding signal (z-score)", "setting": "[9]", "value": -0.275}, {"measurement": "glycan array binding signal (z-score)", "setting": "[10]", "value": -0.334}, {"measurement": "glycan array binding signal (z-score)", "setting": "[11]", "value": -0.333}, {"measurement": "glycan array binding signal (z-score)", "setting": "[12]", "value": -0.319}, {"measurement": "glycan array binding signal (z-score)", "setting": "[13]", "value": -0.328}, {"measurement": "glycan array binding signal (z-score)", "setting": "[14]", "value": -0.119}, {"measurement": "glycan array binding signal (z-score)", "setting": "[15]", "value": -0.336}, {"measurement": "glycan array binding signal (z-score)", "setting": "[16]", "value": -0.342}, {"measurement": "glycan array binding signal (z-score)", "setting": "[17]", "value": -0.339}, {"measurement": "glycan array binding signal (z-score)", "setting": "[18]", "value": -0.332}, {"measurement": "glycan array binding signal (z-score)", "setting": "[19]", "value": -0.322}, {"measurement": "glycan array binding signal (z-score)", "setting": "[20]", "value": -0.305}, {"measurement": "glycan array binding signal (z-score)", "setting": "[21]", "value": -0.336}, {"measurement": "glycan array binding signal (z-score)", "setting": "[22]", "value": -0.337}, {"measurement": "glycan array binding signal (z-score)", "setting": "[23]", "value": -0.332}, {"measurement": "glycan array binding signal (z-score)", "setting": "[24]", "value": -0.273}, {"measurement": "glycan array binding signal (z-score)", "setting": "[25]", "value": -0.328}, {"measurement": "glycan array binding signal (z-score)", "setting": "[26]", "value": -0.321}, {"measurement": "glycan array binding signal (z-score)", "setting": "[27]", "value": -0.324}, {"measurement": "glycan array binding signal (z-score)", "setting": "[28]", "value": -0.323}, {"measurement": "glycan array binding signal (z-score)", "setting": "[29]", "value": -0.26}, {"measurement": "glycan array binding signal (z-score)", "setting": "[30]", "value": -0.338}]}
